Among the data in PubChem BioAssay AID1240 (Sanford-Burnham Center for Chemical Genomics, 2008) are displacement values, retold here.

Structures are written as SMILES. Hit rate of the full screen: of about 50,000 compounds, about 800 (1.6%) showed an effect of 50% or more. The list shows a part of the results.

The target of the assay is Bcl-2-like protein 10 (Homo sapiens) (UniProt Q9HD36). As to the kind of experiment: TR3 peptide-Bcl-B binding displacers, biochemical primary FP assay, phenotype converters (AID 1240).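 Also: 0% = Bcl-B with tracer peptide and DMSO and 100% = tracer peptide lacking Bcl-B.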 As to conditions: GST-Bcl-B / FITC-TR3 peptide fluorescence polarization; stronger effect = higher value; compound at 3.75 mg/L.
UniProt Q9HD36, sequence (Q9HD36 whole entry, looked up): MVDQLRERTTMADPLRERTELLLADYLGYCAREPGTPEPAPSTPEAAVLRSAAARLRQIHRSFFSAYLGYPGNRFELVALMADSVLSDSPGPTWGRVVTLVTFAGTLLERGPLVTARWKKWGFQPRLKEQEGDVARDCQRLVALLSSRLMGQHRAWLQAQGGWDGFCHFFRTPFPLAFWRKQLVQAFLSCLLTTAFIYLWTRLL
With `O=C1S/C(=C/c2ccccc2F)C(=O)N1CNc1ccc(I)cc1`, the displacement was -0.6%. For `O=C(CCNC(=O)/C(=C\c1ccco1)NC(=O)c1ccco1)OCc1ccccc1`, the displacement was found to be 6.1%. As for `CC(=O)C1=C(C)NC(=S)NC1c1ccc(C)cc1` (centres undefined), the displacement was -10.3%. On to `Cc1ccc(CSCCNC(=O)CN(c2ccc(C)cc2)S(=O)(=O)c2ccc(F)cc2)cc1`, for which the displacement amounted to 2.4%. Then `COc1cccc(C=C2C=C(C(C)(C)C)C(=O)C(C(C)(C)C)=C2)c1OC`, with -11.5%; and `CCOC(=O)C1=CS/C(=C2/C(=S)C(C)(C)Nc3c(OCC)cccc32)S1`, with 1.3%. Take `COc1ccccc1-c1c(C(F)(F)F)oc2c(CN(C)C)c(O)ccc2c1=O`: the displacement was determined as 11.4%. Then `CCOC(=O)C(CCc1nnc(N)s1)C(=O)OCC`, with 4.2%.

As to `O=C1C2C3c4ccccc4C(c4ccccc43)C2C(=O)N1C12CC3CC(CC(C3)C1)C2` (centres undefined), the displacement is 6.8%. As for `COc1ccc(Cl)cc1C(=O)NCc1ccccn1`, the figure is 10.2%; as for `COCCOC(=O)C1=C(C)NC2=C(C(=O)CCC2)C1c1cccc(Cl)c1` (centres undefined), 7.5%. With `Cc1cccc(C(=O)N2CCN(c3cc(C)c(C#N)c4nc5ccccc5n34)CC2)c1`, the displacement was 8.9%.

`CCN(CC)c1ccc(C=Nc2ccccc2C(=O)Nc2ccccc2)c(O)c1`: the displacement is -4%. On to `COc1ccccc1C(=O)NNC(=O)COc1ccccc1Cl`, for which the displacement is -8.7%.

On to `OC(c1ccc2c(c1)OCO2)c1nc2ccccc2n1Cc1ccccc1` (centres undefined), for which the displacement was -5.3%. Then `O=C(c1c(Cl)cccc1Cl)N1CCOCC1`, with -2.6%. Take `COc1cc(C(C)=O)ccc1OC(=O)CN1C(=O)c2ccccc2C1=O`: the displacement worked out at 0.4%.

For the compound `CS(=O)(=O)N(Cc1ccc(C(=O)N2CCOCC2)cc1)c1ccccc1`, the displacement was -2.7%. As for `Cc1ccc(N2C(=O)CSC2c2ccc([N+](=O)[O-])cc2)cc1` (centres undefined), the figure is -0.4%; as for `Oc1cc(OCc2ccccc2Cl)ccc1-c1[nH]ncc1-c1ccccc1`, 77.4%. For `CC(=O)Nc1c(O)nc(SCc2ccc([N+](=O)[O-])cc2)[nH]c1=O`, the displacement worked out at 5.3%. With `CN(C)CCCN1C(=O)CSC1c1ccc(Br)cc1` (centres undefined), the displacement was 8.4%.

Regarding `O=c1c(/C=N/N2CCOCC2)c(C(F)(F)F)[nH]n1-c1nc2ccccc2s1`, the displacement was -6.4%. Consider `O=C(Nc1cc(O)ccc1C(=O)O)c1cccc(Br)c1`, for which the displacement is 12.4%.

For `CCCCSc1nc2ccccc2c(=O)n1Cc1ccccc1`, the displacement was -9.1%. As to `Cc1cc2c3c(c1)C1C=CCC1C(c1cccc([N+](=O)[O-])c1)N3CC1CC=CC21` (centres undefined), the displacement came out at 13.6%. Turning to `Cc1cccc(NC(=O)C2(c3ccccc3)CCCC2)n1`, the displacement was -8.3%.

For the compound `CC(=O)N(C)c1ccc(N2CCCCC2)c2c1C(=O)c1ccccc1C2=O`, the displacement came out at 9.4%. Take `CCc1ccccc1N(CC(=O)NCC(C)C)S(C)(=O)=O`: the displacement is -4.4%. As for `CC(=O)C(C(C)=O)C(SCc1ccccc1)c1ccccc1` (centres undefined), the figure is 7.9%. As to `Cn1c(=O)c2c3c(sc2n2c(SCC(=O)c4ccc(Br)cc4)nnc12)CCC3`, the displacement was -8.3%. For the compound `O=C(/C=C/c1ccc([N+](=O)[O-])cc1)NC1CCCCC1`, the displacement was -8.7%. For `CCC(C(=O)NCc1ccccc1)c1ccccc1` (centres undefined), the displacement was 7.4%. On to `O=C(Nc1ccccn1)[C@@H]1C2C=CC(C2)[C@@H]1C(=O)O` (some centres undefined), for which the displacement was -9.3%.

For the compound `CCOc1ccc(NC(=S)NC(NC(=O)c2cccc(I)c2)C(Cl)(Cl)Cl)cc1` (centres undefined), the displacement turned out to be 17.7%.

As to `Cc1c(Br)c(C(F)(F)F)nn1CC(=O)Nc1cccc(O)c1`, the displacement is -2.8%. On to `CCOc1ccccc1N(CC(=O)Nc1cc(Cl)cc(Cl)c1)S(=O)(=O)c1ccccc1`, for which the displacement is -4.5%. As to `COc1ccc(OCC(=O)N/N=C\c2cc(O)c(O)c(Br)c2)c(Br)c1`, the displacement came out at 13.2%.

As for `O=C(Nc1cccc(Br)c1)C(=O)NC1CCCC1`, the displacement was determined as 5.2%. On to `CC1=C(C(=O)Nc2ccccc2)C(c2cccc(O)c2)NC(=S)N1` (centres undefined), for which the displacement is -2.8%. On to `CC(=O)C(Sc1ccccc1[N+](=O)[O-])C(C)=O`, for which the displacement is 1%. As to `CCn1c(=O)c(C(=O)Nc2ccccc2O)c(O)c2ccccc21`, the displacement is 6.5%. As for `COc1ccc(N(CC(=O)N2CCCCC2)S(=O)(=O)c2ccccc2[N+](=O)[O-])c(OC)c1`, the figure is 10%; as for `O=C(/C=C/Nc1cccc(O)c1)c1ccc(Cl)cc1`, -5.4%; as for `COc1cc(NC(=O)c2nn3c(C(F)(F)F)cc(-c4ccccc4)nc3c2Br)c(OC)cc1Cl`, -0.2%. As for `CC(NC(=O)c1ccccc1)C12CC3CC(CC(C3)C1)C2` (centres undefined), the displacement is 39.3%. In the case of `O=C1/C(=C/c2ccccc2[N+](=O)[O-])SC(=S)N1Cc1ccco1`, the displacement turned out to be 16.5%. Consider `Cc1cccc(C)c1NC(=O)CSc1nc2ccccc2[nH]1`, for which the displacement is 9.4%. `COc1ccc(N2C(=O)c3cccc4c([N+](=O)[O-])ccc(c34)C2=O)cc1`: the displacement is 12.4%.

For `O=C(CSCc1cccc(Br)c1)NC1CCCCC1`, the displacement is -3.5%. For `CN1CCc2c(sc3c2C(=O)NC(/C=C\c2ccc([N+](=O)[O-])cc2)N3)C1` (centres undefined), the displacement stood at 24%.

Take `CC1(C)CC(=O)C2=C(C1)NC1=C(C(=O)CC(C)(C)C1)C2c1ccc(Br)cc1`: the displacement came to 15.9%. In the case of `COCCNC(=O)C(C)Sc1ccc(Cl)cc1` (centres undefined), the displacement was -1.3%. On to `Cc1no[n+]([O-])c1COc1ccccc1/C=C1\N=C(c2ccccc2)OC1=O`, for which the displacement is -3.2%. As for `CSc1ccccc1C(=O)O/N=C1/C(=O)N(C)c2ccccc21`, the displacement amounted to 2.5%. Then `Cc1cccc(-n2c(O)c(C=NCc3ccc(F)cc3)c(=O)[nH]c2=O)c1`, with 38.8%; and `CC(=O)Nc1ccc(NC2=C(Cl)C(=O)c3ccccc3C2=O)cc1`, with 7.1%; and `CC1=C(C(=O)OCc2ccccc2)C(c2ccsc2)NC(=O)N1C` (centres undefined), with 1.5%. Turning to `Cc1cc(/C=C2/C(=O)NC(=O)N(c3ccccc3)C2=O)c(C)n1-c1ccccc1`, the displacement is 30.8%.

On to `O=C1C(Nc2ccccc2)=CC(c2cccc(F)c2)N1c1ccccc1` (centres undefined), for which the displacement turned out to be 14.1%. Take `CC(C)(C)NC(=O)c1cc(NC(=O)c2ccco2)cc(NC(=O)c2ccco2)c1`: the displacement was -4.7%. Consider `COc1ccc(N2C(=O)/C(=C\c3cc(OC)ccc3OC)SC2=S)cc1`, for which the displacement was 28.3%. Regarding `CC1=C(C#N)c2nc(N)c(C#N)c(C)c2/C1=C/c1ccc(-c2cccc(Cl)c2Cl)o1`, the displacement turned out to be 2.5%. Then `O=C(NCCCCOc1ccccc1)C(O)(c1ccccc1)c1ccccc1`, with -4.9%. On to `COc1ccc(C(=O)NCc2ccc3c(c2)OCO3)c(OC)c1`, for which the displacement was -2.2%. `COc1ccc(C2NC(=S)NC(C)=C2C(=O)OCCOc2ccccc2)cc1` (centres undefined): the displacement is -22.9%. For `N#C/C(=C/c1ccccc1F)C(=O)Nc1cccc(Br)c1`, the displacement is -0.7%. On to `Cc1ccc(Cl)cc1NC(=O)CSc1nc2ccccc2[nH]1`, for which the displacement is -5.3%. For the compound `COC(=O)c1sc2ccccc2c1N`, the displacement turned out to be 5%.
